Source: the supplement of paper PMC10369915
The other results are listed elsewhere or left out. Cut-off read from the data, not from the text of the source: active = 3.2 or more and inactive = the rest. The signal is at background level for most entries.

B1: MAGEA4_Y240 (peptide)
chain: REHTVYGEPRK
B2: MAP1A_Y1883_A1881P (peptide)
chain: WGTPEYDSVVA
B3: MACC1_Y803_YF (peptide)
chain: HFGNNYRDVLQ
B4: LZTR1_Y141_N143S_YF (peptide)
chain: FTGDIYSSSNL
B5: MAP3K2_Y463_T464S (peptide)
chain: NVTRKYSRQIL
B6: MAP9_Y603 (peptide)
chain: QAINEYEKWLE
B7: MAK16_Y282 (peptide)
chain: QRKRAYVEIEY
B8: MAPT_Y29_T30A (peptide)
chain: KDQGGYAMHQD
B9: MAGEA1_Y276 (peptide)
chain: LAETSYVKVLE
B10: LZTR1_Y141_N143S (peptide)
chain: YTGDIYSSSNL
B11: MANEA_Y331 (peptide)
chain: TNGFTYGSSHQ
B12: MAML2_Y513_M514V (peptide)
chain: KVMANYVYKAG
B13: LYZL6_Y140_F139S (peptide)
chain: GRPLSYWLTGC
B14: LZTR1_Y119_S122L (peptide)
chain: PPAPRYHHLAV
B15: MAGEA1_Y276_K278T (peptide)
chain: LAETSYVTVLE
B16: LY9_Y603_M602V (peptide)
chain: GENTVYAQVFN
B17: MAGED2_Y448 (peptide)
chain: WGLRSYYETSK
B18: MAP3K21_Y724_V728I (peptide)
chain: TESALYGCTIL
B19: MAML2_Y515_M514V (peptide)
chain: MANYVYKAGPS
B20: MAML2_Y515_YF (peptide)
chain: MANFMYKAGPS
B21: MAN1B1_Y60_N59S (peptide)
chain: SFGESYDNSKS
B22: MAP1A_Y2217_H2214Y (peptide)
chain: TRYDEYLEVTK
B23: MAPRE2_Y162_Y162C_YF (peptide)
chain: FFDANCDGKEF
B24: MAP2_Y996_G991R (peptide)
chain: RLGVTYEQALA
B25: MAGED2_Y448_R446C (peptide)
chain: WGLCSYYETSK
B26: MAGED2_Y449_R446C (peptide)
chain: GLCSYYETSKM
B27: MAP1A_Y1555 (peptide)
chain: ALEQKYWALGQ
B28: MAP1B_Y1921_YF (peptide)
chain: PSDSGYSFETI
B29: MAPRE2_Y158 (peptide)
chain: WFKKFYDANYD
B30: MAOA_Y268_C266F_YF (peptide)
chain: HFEFKYVINAI
B31: LYN_Y306 (peptide)
chain: KLVRLYAVVTR
B32: LZTR1_Y141_YF (peptide)
chain: FTGDIYSNSNL
B33: LYN_Y306_V303L (peptide)
chain: KLLRLYAVVTR
B34: MAN2A1_Y442 (peptide)
chain: LQFKNYQQLFD
B35: MAP3K2_Y463 (peptide)
chain: NVTRKYTRQIL
B36: MAPK13_Y182 (peptide)
chain: AEMTGYVVTRW
B37: MAP1B_Y1921_S1917R (peptide)
chain: PRDSGYSYETI

The binders below were run against SHP2 C-SH2 domain E139D (assay: enrichment score (SH2-bound / input frequency) (ratio); bacterial display of known human phosphotyrosine sites (pTyr-Var adds point mutants) read by sequencing; higher = stronger binding; tyrosines were phosphorylated by kinases first). Details: peptide library: pTyr-Var.
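Note: displayed peptides selected on beads carrying the immobilized SH2 domain, with library peptides lacking any tyrosine serving as negative controls.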

Enrichment score, inactive:
B1 0.735
B2 0.976
B3 1.1
B4 0.803
B5 0.472
B6 0.892
B7 0.759
B8 0.668
B9 1.05
B10 0.813
B11 0.713
B12 0.941
B13 0.632
B14 2.57
B15 0.962
B16 1.54
B17 1.13
B18 0.743
B19 0.575
B20 1.17
B21 0.62
B22 0.87
B23 0.766
B24 0.678
B25 1.28
B26 0.864
B27 0.887
B28 0.74
B29 0.62
B30 1.19
B31 0.616
B32 0.533
B33 0.645
B34 0.709
B35 0.526
B36 0.456
B37 0.474

What follows are binders tested against SHP2 C-SH2 domain wild-type in the same assay as above. Details: peptide library: pTyr-Var.

Enrichment score, inactive:
B1 0.781
B2 0.854
B3 0.806
B4 0.673
B5 0.464
B6 0.812
B7 0.427
B8 0.477
B9 3.16
B10 0.881
B11 0.554
B12 0.86
B13 0.755
B14 2.07
B15 2.6
B16 2.66
B17 1.1
B18 0.961
B19 0.844
B20 0.915
B21 0.555
B22 0.817
B23 0.861
B24 0.692
B25 1.96
B26 1.25
B27 0.679
B28 0.689
B29 0.589
B30 1.81
B31 0.817
B32 0.549
B33 1.49
B34 0.588
B35 0.461
B36 0.606
B37 0.619

What follows are binders tested against SHP2 N-SH2 domain L43F in the same assay as above. Details: peptide library: pTyr-Var.

Enrichment score, inactive:
B1 0.551
B2 1.07
B3 0.793
B4 0.746
B5 0.487
B6 0.776
B7 0.501
B8 0.662
B9 0.762
B10 0.674
B11 0.764
B12 0.772
B13 0.746
B14 3.16
B15 0.757
B16 1.03
B17 1.61
B18 0.818
B19 0.629
B20 1.4
B21 0.612
B22 1
B23 0.766
B24 0.803
B25 1.22
B26 0.945
B27 0.777
B28 0.996
B29 0.447
B30 2.05
B31 0.368
B32 0.574
B33 0.603
B34 0.883
B35 0.448
B36 0.315
B37 0.671

The binders below were run against SHP2 N-SH2 domain T42A in the same assay as above. Details: peptide library: pTyr-Var.

Enrichment score, inactive:
B1 0.673
B2 0.698
B3 0.69
B4 0.739
B5 0.446
B6 0.866
B7 1.11
B8 0.425
B9 2.01
B10 0.83
B11 0.732
B12 0.659
B13 0.602
B14 1.9
B15 1.96
B16 2.22
B17 1.09
B18 0.769
B19 0.703
B20 1.17
B21 0.501
B22 1
B23 0.694
B24 1.69
B25 1.31
B26 0.881
B27 0.616
B28 0.734
B29 0.493
B30 1.7
B31 0.441
B32 0.664
B33 0.703
B34 0.899
B35 0.504
B36 0.578
B37 0.72

What follows are binders tested against SHP2 N-SH2 domain T52S in the same assay as above. Details: peptide library: pTyr-Var.

Enrichment score, inactive:
B1 0.585
B2 0.723
B3 0.783
B4 0.839
B5 0.559
B6 0.826
B7 0.564
B8 0.726
B9 0.871
B10 0.8
B11 0.74
B12 0.724
B13 0.658
B14 2.56
B15 1.26
B16 0.988
B17 1.49
B18 0.743
B19 0.707
B20 1.03
B21 0.528
B22 0.923
B23 0.716
B24 0.632
B25 0.845
B26 0.949
B27 0.819
B28 0.745
B29 0.612
B30 1.26
B31 0.531
B32 0.746
B33 0.742
B34 0.763
B35 0.557
B36 0.435
B37 0.449

These binders were tested against SHP2 N-SH2 domain wild-type in the same assay as above. Details: peptide library: pTyr-Var.

Enrichment score, inactive:
B1 0.831
B2 0.727
B3 0.906
B4 0.927
B5 0.598
B6 0.677
B7 0.429
B8 0.615
B9 0.97
B10 0.859
B11 0.626
B12 0.704
B13 0.759
B14 2.76
B15 1.07
B16 0.826
B17 1.21
B18 1.09
B19 0.772
B20 1.08
B21 0.569
B22 1.08
B23 0.93
B24 1.14
B25 1.56
B26 1.35
B27 0.773
B28 0.848
B29 0.703
B30 1.7
B31 0.455
B32 0.73
B33 0.964
B34 0.911
B35 0.616
B36 0.671
B37 1.17
